# Results taken from PubChem BioAssay AID686978 (National Center for Advancing Translational Sciences (NCATS), 2013).
# Where “and” joins values, the source holds several entries; their conditions need not be identical. Identical values can stand only once. Hit rate of the full screen: of about 420,000 compounds, about 64,000 (15%) were called active. The inconclusive results got no clear call from the source; some entries with a clear call stand among them for comparison. The call rests on the fitted dose curve; in most records, active means well fitted inhibition curve with a large enough effect; inconclusive means small, poorly fitted or top-dose-only effect; inactive means flat fitted curve, though single readings scatter. Potencies of inconclusive entries are doubtful fits and often do not repeat.
# Test: qHTS for Inhibitors of human tyrosyl-DNA phosphodiesterase 1 (TDP1): qHTS in cells in absence of CPT; further: nearly all actives have a fitted effect of over 55% in size
# Details: DT40 Tdp1-/- hTDP1 cells, no CPT, ATP luminescence, 48 h; activity change, negative = growth inhibition: at 46.2 µM (top of the series) unless noted
# Summary of the method: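 Growth kinetics read by CellTiter-Glo luminescence after ≥48 hr at 37 °C. Cells: DT40 Tdp1-/- stably carrying human TDP1, 400 per well, compound exposure in the absence of CPT (DMSO vehicle).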
# On the % scale 0 is the no-effect control and ±100 the full control effect; potency means the concentration at half of the fitted maximal effect; tags describe the fitted curve by direction and shape.
Compound,Potency,"activity change, negative = growth inhibition"
CN1CCN(Cc2ccccc2Sc2ccccc2)CC1,"inconclusive: 29.1 µM [inhibitor, single point]",
Nc1c2c(nc3ccccc13)CCN(Cc1ccccc1)C2,"inconclusive: 9.2 µM [inhibitor, partial curve]",
CN(CC(=O)Nc1ccccc1-c1ccccc1)C1CCCCC1,"inconclusive: 20.6 µM [inhibitor, single point]",
CC1CN(O)C2CCc3nonc3C12O (stereo not given),,inactive: -23%
O=C(Nc1ccc2c(c1)OCO2)c1cccn(Cc2cccc(F)c2)c1=O,,inactive: -17.6%
Cc1ccc(Cn2nnnc2CN2CCC(n3nnc4cc(C(F)(F)F)ccc43)CC2)cc1,active: 20.6 µM,
c1cc2c(cc1CCNC1C3CC4CC(C3)CC1C4)OCO2 (stereo not given),"inconclusive: 29.1 µM [inhibitor, single point]",
CC(C(O)c1ccccc1)N(C)CCOC(c1ccccc1)c1ccccc1 (stereo not given),active: 15 µM,
CN1CCN(Cc2nnc3n2-c2ccc(Cl)cc2C(c2ccccc2)=NC3)CC1,"inconclusive: 8.2 µM [inhibitor, partial curve]",
Ic1ccccc1CN[C@@H]1C2CCN(CC2)[C@@H]1C(c1ccccc1)c1ccccc1,active: 6.51 µM,
CCCc1c(-c2ccccc2F)ncn1CCc1ccccc1OC,active: 2.59 µM,
CC1CCCN1CCC(C(N)=O)(c1ccccc1)c1ccccc1 (stereo not given),,inactive: -4.44%
CN1C(=O)CN=C(c2ccc[nH]2)c2cc(Cl)ccc21 (tested in a mixture with another compound),active: 1.3 µM,
O=C1/C(=C\c2ccc([N+](=O)[O-])cc2)N2CCC1CC2,"inconclusive: 29.1 µM [inhibitor, single point]",
CC(=NCc1cccnc1)c1c(O)n(-c2ccc(Cl)cc2)c(=O)[nH]c1=O,,inactive: 7.36%
COC(=O)C1=C(c2ccc(S(C)(=O)=O)cc2)C[C@@H]2CC[C@H]1N2C,,inactive: 0.586%
CC1=C(C/C(C)=C/c2ccccc2)/C(=C/CO)[C@@H]2OC(=O)O[C@]2(C)C12CC2,active: 11.6 µM,
CCCCCCn1c(O)c(C=NC2CCN(Cc3ccccc3)CC2)c(=O)[nH]c1=O,active: 10.3 µM,
CC1CC(OC(=O)c2ccccc2)(c2ccccc2)C(C)CN1C (stereo not given),,inconclusive: -31.6% [inhibitor]
Cc1cc(C)[n+](C2C3CC4CC(C3)CC2C4)o1 (stereo not given),active: 20.6 µM,
COC(=O)C1=C(c2ccc(F)cc2OCc2ccccc2)C[C@@H]2CC[C@H]1N2C(=O)NCc1ccc(C)cc1,"inconclusive: 29.1 µM [inhibitor, single point]",
CCN(CCCNS(=O)(=O)c1ccc2c(c1)oc(=O)n2C)c1cccc(C)c1,"inconclusive: 29.1 µM [inhibitor, single point]",
CCOP(=S)(OCC)SCSP(=S)(OCC)OCC,,inconclusive: -31.1% [inhibitor]
C[C@H](N)CN1CCc2ccc(Br)cc21,"inconclusive: 14.6 µM [inhibitor, single point]",

Compound,Potency,"activity change, negative = growth inhibition"
CCCNC1=C(C)C(=O)C2=C(C1=O)C(COC(N)=O)[C@]1(OC)C3NC3CN21 (stereo not given in full),active: 0.259 µM,
O=C(CN1C(=O)c2ccccc2C1=O)N1CCN(c2nnc(-c3ccccc3)c3ccccc23)CC1,"inconclusive: 25.9 µM [inhibitor, single point]",
Cc1nn(Cc2ccccc2Cl)c(C)c1C(=O)OCC(=O)N1CC(C)OC(C)C1 (stereo not given),,inactive: -26%
CCOC(=O)c1c(-c2ccc(OC)cc2)oc2ccc(OC(=O)N(C)C)cc12,active: 18.4 µM,
CN1CCN(c2nc(N(C)C)oc(=O)c2C#N)CC1,,inactive: 2.5%
CCCc1cc(=O)oc2cc(OCC(=O)N3CCN(Cc4ccc5c(c4)OCO5)CC3)ccc12,"inconclusive: 29.1 µM [inhibitor, single point]",
CCOC(=O)C1=Nc2ccccc2/C1=C\c1c(O)n(C)c(=O)n(C)c1=O,"inconclusive: 16.4 µM [inhibitor, partial curve]",
Cn1c(=O)oc2cc(S(=O)(=O)N3CCC(C(=O)N4CC=C(c5ccccc5)CC4)CC3)ccc21,active: 11.6 µM,
Cc1ccsc1C(=O)C1CCCN(Cc2c(C)nn(C(C)C)c2C)C1 (stereo not given),,inactive: -14.5%
CCOC(=O)[C@]12Cc3cc4ccccc4cc3[C@H]1N(Cc1ccccc1)C(=O)c1ccccc12,active: 20.6 µM,
CCOC(=O)c1ccc(N2C(=O)CC(N3CCC(O)(c4ccc(Cl)cc4)CC3)C2=O)cc1 (stereo not given),"inconclusive: 20.6 µM [inhibitor, single point]",
CN1CCN(CC#CCOc2ccc(Cl)cc2)CC1,"inconclusive: 20.6 µM [inhibitor, single point]",
CC(C)C[C@@H]1CN(CCCC[C@H]2CNC(=O)C(=O)N2CCC2CCCCC2)C(=O)C(=O)N1CCC1CCCCC1,,inactive: -24%
COC(=O)C1=C(c2ccc(F)cc2F)C[C@@H]2CC[C@H]1N2C(=O)NC1CCCCC1,"inconclusive: 13 µM [inhibitor, partial curve]",
COc1ccc(C(=O)Nc2ccccc2C(=O)NC(C(=O)NCc2ccco2)C(C)C)cc1 (stereo not given),"inconclusive: 16.4 µM [inhibitor, partial curve]",
N#CC1=C(N)Oc2c(c(=O)oc3ccccc23)C1c1ccc(OC(=O)N2CCOCC2)cc1 (stereo not given),,inactive: -5.19%
O=C(Oc1ccccc1)N1CCC[C@@]2(CCN(Cc3cc(C(F)(F)F)cc(C(F)(F)F)c3)C2)C1,"inconclusive: 29.1 µM [inhibitor, single point]",
COc1cc(OC)c([C@H]2C=C(C)[C@H]3C[C@@H]2C3(C)C)c(OC)c1,"inconclusive: 29.1 µM [inhibitor, single point]",
Cc1ccc(Cn2c(C)c3cnn(CC(=O)N4CCC5(CC4)OCCO5)c(=O)c3c2C)cc1,active: 14.6 µM,
COc1ccc(C(=O)NC(=S)N2C[C@H]3C[C@H](C2)c2cccc(=O)n2C3)cc1OC,,inactive: 0.395%
Cc1ccc(S(=O)(=O)N(C)N=O)cc1,,inactive: -18.6%
Cc1cccc(-c2nc3ccc(C(=O)N4CCC5(CC4)OCCO5)cc3nc2-c2cccc(C)c2)c1,"inconclusive: 18.4 µM [inhibitor, single point]",
COC(=O)C1=C(c2ccc(F)cc2OCc2ccccc2)C[C@@H]2CC[C@H]1N2C(=O)NCCOc1ccc(OC)cc1,active: 16.4 µM,
CCN(CC)S(=O)(=O)c1ccc(NN=C(C#N)C#N)cc1,"inconclusive: 18.4 µM [inhibitor, single point]",

Compound,Potency,"activity change, negative = growth inhibition"
Cc1c(C(=O)Nc2ccc(Br)cc2F)oc2ccc(S(=O)(=O)N3CCCCC3)cc12,"inconclusive: 7.31 µM [inhibitor, partial curve]",
O=C(c1cc(F)ccc1F)C1CCCN(Cc2ccc3nonc3c2)C1 (stereo not given),,inactive: -23.9%
Cc1ccc(Sc2ccc(N3CCCC(C(=O)Nc4ccc(Cl)cc4)C3)nn2)cc1 (stereo not given),"inconclusive: 23.1 µM [inhibitor, single point]",
CCn1ccnc1CN1CCCC(C(=O)c2ccc(SC)cc2)C1 (stereo not given),active: 18.4 µM,
CN1CCc2cc(Cl)c(O)cc2[C@H]2c3ccccc3CC[C@@H]21,"inconclusive: 15 µM [inhibitor, partial curve, poor fit]",
COc1ccc(CCn2c(NN=C3CCCCC3)nc3c2c(=O)[nH]c(=O)n3C)cc1,active: 16.4 µM,
C[C@]12CCC3C(CC[C@H]4C[C@H](O)CC[C@]34C)C1[C@@H](O)[C@@H](O)[C@@H]2O (stereo not given in full),,inactive: -9.3%
CCCCCCCCCCCCCCCCOC[C@@H](COP(=O)([O-])OCC[N+](C)(C)C)OC(C)=O,"inconclusive: 3.66 µM [inhibitor, single point]",
Cc1cccc(-n2c(/C=C/c3c(C)[nH]c4ccccc34)nc3ccccc3c2=O)c1,"inconclusive: 7.31 µM [inhibitor, partial curve]",
O=C(c1ccc2nc3ccc(Cl)cc3c(=O)n2c1)N1CCC2(CC1)OCCO2,,inactive: -11.4%
COC(=O)C1=C(c2ccc3ccccc3c2)C[C@@H]2CC[C@H]1N2C(=O)NCc1ccc(C(F)(F)F)cc1,"inconclusive: 29.1 µM [inhibitor, single point]",
NCCc1ccc(S(=O)(=O)F)cc1,,inactive: 0.906%
CCN(CC)CCOC(=O)C(C)(c1ccccc1)c1ccccc1,"inconclusive: 29.9 µM [inhibitor, single point]",
CCN1CCCC(OC(=O)C(c2ccccc2)c2ccccc2)C1 (stereo not given),"inconclusive: 7.18 µM [inhibitor, partial curve, poor fit] and inconclusive: 18.4 µM [inhibitor, single point]",
CC1CN=C(Nc2cccc3ccccc23)S1 (stereo not given),,inactive: -19.2%
CCN1CCC(N(C)C2CCCCC2)CC1,,inactive: 0.422%
C[C@@H]1CN([C@H](C)CO)C(=O)CCCn2nncc2CO[C@@H]1CN(C)C(=O)Oc1ccc2ccccc2c1,active: 8.2 µM,
COc1ccc(N2CCN(c3ncnc4c3nc3n4CCCCC3)CC2)cc1,"inconclusive: 29.1 µM [inhibitor, single point]",
COC(=O)C1=C(c2cc3ccccc3s2)C[C@@H]2CC[C@H]1N2C(=O)N1CCOCC1,active: 7.31 µM,
C[C@H]1[C@H](OC(=O)CCC(=O)NCc2ccc(C(=O)O)cc2)O[C@@H]2O[C@@]3(C)CC[C@H]4[C@H](C)CC[C@@H]1C24OO3,active: 0.0259 µM,
Cc1ccc(-c2cc(C(F)F)n3ncc(C(=O)N4CCC5(CC4)OCCO5)c3n2)cc1,"inconclusive: 23.1 µM [inhibitor, single point]",
O=[N+]([O-])c1ccc(S(=O)(=O)NN=C2CCCCC2)cc1,"inconclusive: 10.3 µM [inhibitor, partial curve, poor fit]",
